From a collection of fitness landscapes (doi:10.1016/j.celrep.2020.107928)
Whole data set: some 81,000 sequences, median “one-hybrid fitness for binding parS DNA” near -0.17, cut for the highest 2% near 0.51. The list shows a part of the results.

B1: Caulobacter ParB omega fusion; a variant is named by its letters at X, in order, B8GW30 (parent)
chain: MESVVVGEPGMSEGRRGLGRGLSALLGEVDAAPAQAPGEQLGGSREAPIEILQRNPDQPRRTFREEDLEDLSNSIREKGVLQPILVRPSPDTAGEYQIVAGERAWRAAQRAGLKTVPIMVRELDDLAVLEIGIIENVQRADLNVLEEALSYKVLMEKFERTQENIAQTIGKSXSHVANXMRLLXLPDEVQSYLVSGELTAXHARAIAAAADPVALAKQIIEGGLSVRETEALARKAPNLSAGKSKGGRPPRVKDTDTQALESDLSSVLGLDVSIDHRGSTGTLTITYATLEQLDDLCNRLTRGI

Variants of: B1
Test: one-hybrid fitness for binding parS DNA (scaled: cognate 1, non-cognate 0); higher = stronger binding
Settings: with parS DNA site
Summary of the method: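 Caulobacter ParB libraries with four specificity codons randomised were screened by bacterial one-hybrid selection in the E. coli USO strain, using a HIS3 reporter whose site lies 19 bp from the promoter. Selection ran for 48 hours at 37°C on M9 lacking histidine, with 0.1 mM IPTG and 5 mM 3-AT. Plasmids were Illumina-sequenced before and after selection, three replicate libraries were pooled, and variants with under 10 reads were dropped. Fitness is the log change in each variant's read ratio to wild type, rescaled against the cognate and non-cognate sites.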

Row | Variant | one-hybrid fitness for binding parS DNA
1 | MISC | ≤ 0.2
2 | AGCP | ≤ 0.2
3 | TVVG | ≤ 0.2
4 | TQLY | ≤ 0.2
5 | GRVW | ≤ 0.2
6 | LGVT | ≤ 0.2
7 | IASH | ≤ 0.2
8 | PVCQ | ≤ 0.2
9 | GQYT | ≤ 0.2
10 | SKTR | ≤ 0.2
11 | YQTT | ≤ 0.2
12 | PAVS | ≤ 0.2
13 | NTHR | ≤ 0.2
14 | VNSE | ≤ 0.2
15 | TPWW | ≤ 0.2
16 | SNKN | ≤ 0.2
17 | TIDR | ≤ 0.2
18 | RSWN | 0.412
19 | ALNG | ≤ 0.2
20 | SIAG | ≤ 0.2
21 | LMLT | ≤ 0.2
22 | FLFG | ≤ 0.2
23 | NRWR | ≤ 0.2
24 | DTFG | ≤ 0.2

Row | Variant | one-hybrid fitness for binding parS DNA
25 | KAKG | ≤ 0.2
26 | DGRL | ≤ 0.2
27 | FSRD | ≤ 0.2
28 | VSCC | ≤ 0.2
29 | NFLG | ≤ 0.2
30 | QTEI | ≤ 0.2
31 | SFGH | ≤ 0.2
32 | CGTS | ≤ 0.2
33 | PHCT | ≤ 0.2
34 | LFAC | ≤ 0.2
35 | TVLY | ≤ 0.2
36 | LLMQ | ≤ 0.2
37 | RQEA | 0.554
38 | HQAR | ≤ 0.2
39 | KRPG | ≤ 0.2
40 | DPQC | ≤ 0.2
41 | TNHL | ≤ 0.2
42 | FQYT | ≤ 0.2
43 | CYMC | ≤ 0.2
44 | KNRD | ≤ 0.2
45 | FWGS | ≤ 0.2
46 | NISR | ≤ 0.2
47 | ISSC | ≤ 0.2
48 | VGQL | ≤ 0.2

Row | Variant | one-hybrid fitness for binding parS DNA
49 | FCIS | 0.332
50 | RIEN | 0.279
51 | YWPS | ≤ 0.2
52 | RHQS | 0.927
53 | QMFR | ≤ 0.2
54 | VADL | ≤ 0.2
55 | AQPG | ≤ 0.2
56 | IITT | ≤ 0.2
57 | IVFS | ≤ 0.2
58 | HRQA | ≤ 0.2
59 | TRHR | ≤ 0.2
60 | RCPI | ≤ 0.2
61 | TLVQ | ≤ 0.2
62 | CWCS | ≤ 0.2
63 | SKFR | ≤ 0.2
64 | SDFY | ≤ 0.2
65 | EKDT | ≤ 0.2
66 | PNLC | ≤ 0.2
67 | QVVQ | ≤ 0.2
68 | GLYC | ≤ 0.2
69 | VISI | ≤ 0.2
70 | MTMR | ≤ 0.2
71 | DVSF | ≤ 0.2
72 | KVTT | ≤ 0.2

Row | Variant | one-hybrid fitness for binding parS DNA
73 | PLPY | ≤ 0.2
74 | GPQS | ≤ 0.2
75 | GCMG | ≤ 0.2
76 | WREV | ≤ 0.2
77 | RGHV | ≤ 0.2
78 | CQEC | ≤ 0.2
79 | DWRG | ≤ 0.2
80 | CLYM | ≤ 0.2
81 | LMWT | ≤ 0.2
82 | VFEC | ≤ 0.2
83 | KKVC | ≤ 0.2
84 | SGQC | ≤ 0.2
85 | EAMS | ≤ 0.2
86 | LCNW | ≤ 0.2
87 | EPHL | ≤ 0.2
88 | RHPL | ≤ 0.2
89 | REFP | ≤ 0.2
90 | YPLN | ≤ 0.2
91 | ETSR | ≤ 0.2
92 | CLVR | ≤ 0.2
93 | VPLF | ≤ 0.2
94 | NHLC | ≤ 0.2
95 | IAAS | ≤ 0.2
96 | SAPR | ≤ 0.2

Row | Variant | one-hybrid fitness for binding parS DNA
97 | PNNN | ≤ 0.2
98 | TSEP | ≤ 0.2
99 | RVRC | 0.851
100 | LNPI | ≤ 0.2
101 | GAPS | ≤ 0.2
102 | SNLR | ≤ 0.2
103 | SDSW | ≤ 0.2
104 | EPRL | ≤ 0.2
105 | DMTL | ≤ 0.2
106 | PKWF | ≤ 0.2
107 | NVLG | ≤ 0.2
108 | VTRC | ≤ 0.2
109 | KREC | ≤ 0.2
110 | DPTQ | ≤ 0.2
111 | SGSM | ≤ 0.2
112 | YGAE | ≤ 0.2
113 | VQYA | ≤ 0.2
114 | QQGS | ≤ 0.2
115 | CHWR | ≤ 0.2
116 | NLCF | ≤ 0.2
117 | VRMR | ≤ 0.2
118 | DHTV | ≤ 0.2
119 | THPI | ≤ 0.2
120 | DVWG | ≤ 0.2

Row | Variant | one-hybrid fitness for binding parS DNA
121 | LGVA | ≤ 0.2
122 | RISW | 0.246
123 | SSPH | ≤ 0.2
124 | GPRL | ≤ 0.2
125 | IYMR | ≤ 0.2
126 | ARQG | ≤ 0.2
127 | FYMA | ≤ 0.2
128 | GKKY | ≤ 0.2
129 | HRGS | 0.37
130 | GNNS | ≤ 0.2
131 | TCQG | ≤ 0.2
132 | SFQY | ≤ 0.2
133 | YGAA | ≤ 0.2
134 | SHPA | ≤ 0.2
135 | SQLG | ≤ 0.2
136 | PHLM | ≤ 0.2
137 | SRTN | ≤ 0.2
138 | QPSC | ≤ 0.2
139 | RLKF | 0.389
140 | WTET | ≤ 0.2
141 | TLYF | ≤ 0.2
142 | QFHV | ≤ 0.2
143 | KKYF | ≤ 0.2
144 | GMTI | ≤ 0.2

Row | Variant | one-hybrid fitness for binding parS DNA
145 | RKQA | 0.712
146 | AGGE | ≤ 0.2
147 | QSGK | ≤ 0.2
148 | HRTQ | ≤ 0.2
149 | GKNS | ≤ 0.2
150 | REWG | ≤ 0.2
151 | IRVS | ≤ 0.2
152 | PTRM | ≤ 0.2
153 | NLPR | ≤ 0.2
154 | WMLN | ≤ 0.2
155 | QHSV | ≤ 0.2
156 | DAVM | ≤ 0.2
157 | RQEK | ≤ 0.2
158 | CAMR | ≤ 0.2
159 | CTNP | ≤ 0.2
160 | TGSE | ≤ 0.2
161 | EGET | ≤ 0.2
162 | ATMW | ≤ 0.2
163 | SECC | ≤ 0.2
164 | IKLC | ≤ 0.2
165 | ETTG | ≤ 0.2
166 | ACAK | ≤ 0.2
167 | PAKE | ≤ 0.2
168 | CQVR | ≤ 0.2

Row | Variant | one-hybrid fitness for binding parS DNA
169 | TKNI | ≤ 0.2
170 | PHMI | ≤ 0.2
171 | HEHD | ≤ 0.2
172 | RFGQ | ≤ 0.2
173 | WSKT | ≤ 0.2
174 | TKCV | ≤ 0.2
175 | GCHR | ≤ 0.2
176 | VSAV | ≤ 0.2
177 | TGMI | ≤ 0.2
178 | VLCY | ≤ 0.2
179 | VELL | ≤ 0.2
180 | EQGH | ≤ 0.2
181 | PTSA | ≤ 0.2
182 | MNSN | ≤ 0.2
183 | MPTA | ≤ 0.2
184 | ASTA | ≤ 0.2
185 | TKLY | ≤ 0.2
186 | WCHC | ≤ 0.2
187 | ITKY | ≤ 0.2
188 | CFAT | ≤ 0.2
189 | SSDN | ≤ 0.2
190 | LAPY | ≤ 0.2
191 | MLTR | ≤ 0.2
192 | TYQD | ≤ 0.2

Row | Variant | one-hybrid fitness for binding parS DNA
193 | PVRR | ≤ 0.2
194 | FCVS | ≤ 0.2
195 | VIPS | ≤ 0.2
196 | LYID | ≤ 0.2
197 | WQVT | ≤ 0.2
198 | ETRW | ≤ 0.2
199 | QATQ | ≤ 0.2
200 | RMPL | ≤ 0.2
201 | DCSS | ≤ 0.2
202 | MPRG | ≤ 0.2
203 | YHCT | ≤ 0.2
204 | MRAP | ≤ 0.2
205 | PCIV | ≤ 0.2
206 | WPSA | ≤ 0.2
207 | YVNS | ≤ 0.2
208 | WNYR | ≤ 0.2
209 | NAEW | ≤ 0.2
210 | LRDY | ≤ 0.2
211 | SYSF | ≤ 0.2
212 | PGQM | ≤ 0.2
213 | CWTC | ≤ 0.2
214 | PAQD | ≤ 0.2
215 | DLFL | ≤ 0.2
216 | VTNA | ≤ 0.2

Row | Variant | one-hybrid fitness for binding parS DNA
217 | SFNC | ≤ 0.2
218 | QGSV | ≤ 0.2
219 | QRVR | ≤ 0.2
220 | SVCC | ≤ 0.2
221 | MMGT | ≤ 0.2
222 | HVLF | ≤ 0.2
223 | QNRP | ≤ 0.2
224 | PPHG | ≤ 0.2
225 | PGKV | ≤ 0.2
226 | QDVR | ≤ 0.2
227 | NASQ | ≤ 0.2
228 | GMKL | ≤ 0.2
229 | EQMG | ≤ 0.2
230 | ICVS | ≤ 0.2
231 | PCVS | ≤ 0.2
232 | RVSV | ≤ 0.2
233 | RMFM | 0.369
234 | YFAG | ≤ 0.2
235 | YVEF | ≤ 0.2
236 | HLGT | ≤ 0.2
237 | RNCY | 0.235
238 | RVVV | ≤ 0.2
239 | TNLT | ≤ 0.2
240 | IHSG | ≤ 0.2

Row | Variant | one-hybrid fitness for binding parS DNA
241 | NPRI | ≤ 0.2
242 | FDTY | ≤ 0.2
243 | RKMD | ≤ 0.2
244 | PKSW | ≤ 0.2
245 | FLFS | ≤ 0.2
246 | QSDG | ≤ 0.2
247 | PVAC | ≤ 0.2
248 | FTGG | ≤ 0.2
249 | SVGE | ≤ 0.2
250 | CYYV | ≤ 0.2
251 | WEKR | ≤ 0.2
252 | WLIG | ≤ 0.2
253 | SMQP | ≤ 0.2
254 | QVDC | ≤ 0.2
255 | WSLY | ≤ 0.2
256 | SRSG | ≤ 0.2
257 | DWSV | ≤ 0.2
258 | TLSC | ≤ 0.2
259 | RLGH | 0.204
260 | APVN | ≤ 0.2
261 | TLTA | ≤ 0.2
262 | AMHS | ≤ 0.2
263 | GSGG | ≤ 0.2
264 | HSVV | ≤ 0.2

Row | Variant | one-hybrid fitness for binding parS DNA
265 | DWIS | ≤ 0.2
266 | SFGR | ≤ 0.2
267 | QTKL | ≤ 0.2
268 | TAFW | ≤ 0.2
269 | YRCT | ≤ 0.2
270 | TDWL | ≤ 0.2
271 | KMDR | ≤ 0.2
272 | EFMR | ≤ 0.2
273 | NIGR | ≤ 0.2
274 | VASA | ≤ 0.2
275 | EPLL | ≤ 0.2
276 | KQGN | ≤ 0.2
277 | ARIQ | ≤ 0.2
278 | REDM | ≤ 0.2
279 | TRRD | ≤ 0.2
280 | TLKQ | ≤ 0.2
281 | YQLF | ≤ 0.2
282 | DPRL | ≤ 0.2
283 | VYKG | ≤ 0.2
284 | PLMA | ≤ 0.2
285 | RVRY | 0.583
286 | MVVS | ≤ 0.2
287 | GVLT | ≤ 0.2
288 | QNWI | ≤ 0.2

Row | Variant | one-hybrid fitness for binding parS DNA
289 | SMGC | ≤ 0.2
290 | GIWV | ≤ 0.2
291 | NPLI | ≤ 0.2
292 | AHIF | ≤ 0.2
293 | HTPN | ≤ 0.2
294 | FCHL | ≤ 0.2
295 | RSMV | ≤ 0.2
296 | KIRM | ≤ 0.2
297 | KNAG | ≤ 0.2
298 | RFWC | 0.697
299 | TEDV | ≤ 0.2
300 | TWYS | ≤ 0.2
301 | LHMR | ≤ 0.2
302 | SSTE | ≤ 0.2
303 | MGMM | ≤ 0.2
304 | INQS | ≤ 0.2
305 | VMRL | ≤ 0.2
306 | TGNG | ≤ 0.2
